Measured values: PubChem BioAssay AID686978 (National Center for Advancing Translational Sciences (NCATS), 2013)
Several values for one entry are separate records, joined by “and”; a condition that tells them apart may be missing. Equal values may be shown once. Out of some 420,000 compounds screened, about 64,000 (15%) were called active. Inconclusive means that the source gave no clear call. Such entries were picked first, then a sample of the others. The call rests on the fitted dose curve; in most records, active means well fitted inhibition curve with a large enough effect; inconclusive means small, poorly fitted or top-dose-only effect; inactive means flat fitted curve, though single readings scatter. No potency is given beside an inconclusive call; the fits are too rough. Where a structure was tested more than once in an assay, its records may differ in their call.

Test: qHTS for Inhibitors of human tyrosyl-DNA phosphodiesterase 1 (TDP1): qHTS in cells in absence of CPT; further: nearly all actives have a fitted effect of over 55% in size
Conditions: DT40 Tdp1-/- hTDP1 cells, no CPT, ATP luminescence, 48 h; activity change, negative = growth inhibition: at 46.2 µM (top of the series) unless noted
Outline: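 Cells were dispensed at 400 per well, compounds added by pin tool, plates incubated ≥48 hr at 37 °C, then CellTiter-Glo added for 30 min at room temperature before luminescence reading. Line: DT40 Tdp1-/- complemented with hTDP1; camptothecin omitted.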
On the % scale 0 is the no-effect control and ±100 the full control effect; potency means the concentration at half of the fitted maximal effect; tags describe the fitted curve by direction and shape.

| SMILES | Potency | activity change, negative = growth inhibition |
| --- | --- | --- |
| Oc1c(CN2CCOCC2)ccc2ccccc12 | inconclusive [inhibitor, single point] |  |
| c1ccc2c(c1)CCc1ccccc1C2=C1CCNCC1 | active: 13 µM |  |
| CC(C)Oc1ccc(C(CC(=O)N(C)CCC#N)c2ccc(F)cc2)cc1 (stereo unspecified) |  | inconclusive: -31.6% [inhibitor] |
| N#Cc1nc(-c2ccc(COc3ccccc3)o2)oc1NCc1ccccc1 | inconclusive [inhibitor, single point] |  |
| O=C(CN1C(=O)CCc2cc(S(=O)(=O)N3CCOCC3)ccc21)Nc1cccc(Cl)c1 |  | inactive: 3.51% |
| O=C(c1c[nH]c2ccccc12)C(Cl)c1ccccc1 (stereo unspecified) | active: 20.6 µM |  |
| COCCN(C(=O)COC(=O)c1cc2c(s1)CCC2)c1c(N)n(Cc2ccccc2)c(=O)[nH]c1=O |  | inactive: -4.9% |
| CN(C)CCCN(C(=O)c1cccs1)c1nc2ccc(F)cc2s1 | inconclusive [inhibitor, single point] |  |
| Cc1cc(=O)oc2cc(OCC(=O)NC3CCN(Cc4ccccc4)CC3)c(Cl)cc12 | inconclusive [inhibitor, single point] |  |
| O=[N+]([O-])c1cc(/C=N/N2CCN(C3c4ccccc4-c4ccccc43)CC2)ccc1Cl | inconclusive [inhibitor, single point] |  |
| Cc1nc2ccccc2n1CCc1nc2c3ccccc3nc(SCC(=O)Nc3ccc(Br)cc3F)n2n1 | inconclusive [inhibitor, single point] |  |
| O=C(CN1CCN(c2ccc(O)cc2)CC1)Nc1ccc(SC(F)F)cc1 | inconclusive [inhibitor, single point] |  |
| O=C(CN1C(=O)NC2(CCCCCC2)C1=O)NCc1ccccc1Cl |  | inactive: -4.72% |
| CSc1nc2ncc3c(n2n1)CC1c2ccccc2CCN1C3=O (stereo unspecified) |  | inconclusive: -33.7% [inhibitor] |
| COc1ccc2cc(/C(C)=N/NC(=O)c3cc(C)oc3C)ccc2c1 | inconclusive [inhibitor, single point] |  |
| CN1CCc2nc(SCC(=O)Nc3ccc(Cl)cc3)c(C#N)cc2C1 | inconclusive [inhibitor, single point] |  |
| CN1CCN(c2oc(-c3ccc(COc4ccc(Cl)cc4)o3)nc2C#N)CC1 | inconclusive [inhibitor, single point] |  |
| O=C(COc1ccc(Nc2ccccc2)cc1)Nc1ccncc1 | active: 16.4 µM |  |

| SMILES | Potency | activity change, negative = growth inhibition |
| --- | --- | --- |
| CCc1ccc(NC(=O)CN2C(=O)COc3ccc(S(=O)(=O)N4CCCC4)cc32)cc1 |  | inactive: -28.2% |
| CCn1c(=O)c(C(=O)Nc2ccccc2C)c(O)c2ccccc21 | active: 23.1 µM |  |
| CCOc1ccc(S(=O)(=O)N2CCCCC2)cc1NC(=O)CCNC(=O)c1ccco1 |  | inactive: -8.24% |
| N#CCCN(C(=O)COC(=O)CCc1nc2ccccc2c(=O)[nH]1)c1ccc(F)cc1 |  | inconclusive: 0.107% [inhibitor] |
| COCCNc1cc(-c2ccccc2C)ncn1 |  | inactive: 30.6% |
| CCOC(=O)N1CCN(S(=O)(=O)c2ccc3c(c2)CCN3C(=O)C2CCC2)CC1 | inconclusive [inhibitor, single point] |  |
| Cc1ccc(-c2nnc(SCC(=O)Nc3sc(C)c(C)c3C#N)n2C)cc1 | inconclusive [inhibitor, full curve] |  |
| O=C(Nc1ccccc1)c1cc([N+](=O)[O-])ccc1Cl | inactive and active: 28.2 µM |  |
| COc1ccc(C(=O)N/N=C/c2cc3ccccc3[nH]c2=O)cc1 |  | inactive: 6.96% |
| COc1ccccc1NC(=S)N1CCN(Cc2ccc3c(c2)OCO3)CC1 |  | inconclusive: -36.6% [inhibitor] |
| CCCSc1ncc(Cl)c(C(=O)N(Cc2ccc(N(C)C)cc2)C2CCS(=O)(=O)C2)n1 (stereo unspecified) | inconclusive [inhibitor, partial curve] |  |
| C=CCN1C(=O)/C(=C2\SC(N3CCOCC3)=NC2=O)c2cc(Br)ccc21 | inconclusive [inhibitor, single point] |  |
| COc1ccccc1NC(=O)N1CCC(NC(=O)C2CCCCC2)CC1 |  | inactive: -27% |
| Cc1cccc(-c2nsc(SCC(=O)c3ccc(Cl)cc3)n2)c1 | inconclusive [inhibitor, partial curve] |  |
| CC(=O)c1ccc(NCC(=O)N2CCN(S(=O)(=O)c3ccccc3)CC2)cc1 | inconclusive [inhibitor, single point] |  |
| Cc1ccc(C(=O)NCCCN2CCOCC2)o1 |  | inactive: 8.32% |
| CNC(=O)N(O)C1N(/N=C/c2cc(Br)ccc2O)C(=S)SC1(C)C (stereo unspecified) | inconclusive [inhibitor, single point] |  |
| CN(Cc1ccccc1)S(=O)(=O)c1ccc(NC(=S)NC(=O)C2CCCCC2)cc1 | active: 14.6 µM |  |
